# Target: Human GST-NDUFS1 (recombinant NDUFS1) (human, UniProt P28331)
# Assay: MST
binder,measurement,value
"GST-MDM2^WT (recombinant GST-tagged MDM2 full length) (natural protein, murine, NHS ester-modified and fluorescently labeled with Alexa Fluor 647 (in the MST only)) MCNTNMSVSTEGAASTSQIPASEQETLVRPKPLLLKLLKSVGAQNDTYTMKEIIFYIGQYIMTKRLYDEKQQHIVYCSNDLLGDVFGVPSFSVKEHRKIYAMIYRNLVAVSQQDSGTSLSESRRQPEGGSDLKDPLQAPPEEKPSSSDLISRLSTSSRRRSISETEENTDELPGERHRKRRRSLSFDPSLGLCELREMCSGGSSSSSSSSSESTETPSHQDLDDGVSEHSGDCLDQDSVSDQFSVEFEVESLDSEDYSLSDEGHELSDEDDEVYRVTVYQTGESDTDSFEGDPEISLADYWKCTSCNEMNPPLPSHCKRCWTLRENWLPDDKGKDKVEISEKAKLENS[left out - about 150 residues]",Kd,1100 ± 600 nM
